Measurements: the supplement of paper PMC8728848
The other results are listed elsewhere or left out.

What was measured:
Assay in all cases: glycan array binding signal (z-score within array); higher = stronger binding
Settings in all cases: glycan notation: IUPAC condensed, linker removed
[1] = target: Neu5Ac(a2-6)Gal(b1-4)GlcNAc(b1-2)Man(a1-3)[Man(a1-6)]Man(b1-4)GlcNAc(b1-4)GlcNAc
Outline: (§1)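 The binding signal is a Z-score computed within each array and averaged over linkers. Arrays of the same protein sequence at different concentrations or buffers were also averaged together. Data originate from 3228 arrays in the Consortium for Functional Glycomics database, kept only where the protein sequence was available.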

[2] = target: Neu5Ac(a2-6)Gal(b1-4)GlcNAc(b1-2)Man(a1-3)[Neu5Ac(a2-3)Gal(b1-4)GlcNAc(b1-2)Man(a1-6)]Man(b1-4)GlcNAc(b1-4)GlcNAc
Outline: as §1

[3] = target: Neu5Ac(a2-6)Gal(b1-4)GlcNAc(b1-2)Man(a1-3)[Neu5Ac(a2-6)Gal(b1-4)GlcNAc(b1-2)Man(a1-6)]Man(b1-4)GlcNAc(b1-4)GlcNAc
Outline: as §1

[4] = target: Neu5Ac(a2-6)Gal(b1-4)GlcNAc(b1-2)Man(a1-3)[Neu5Ac(a2-6)Gal(b1-4)GlcNAc(b1-2)Man(a1-6)]Man(b1-4)GlcNAc(b1-4)[Fuc(a1-6)]GlcNAc
Outline: as §1

[5] = target: Neu5Ac(a2-6)Gal(b1-4)GlcNAc(b1-2)Man(a1-6)Man(b1-4)GlcNAc(b1-4)GlcNAc
Outline: as §1

[6] = target: Neu5Ac(a2-6)Gal(b1-4)GlcNAc(b1-2)Man(a1-6)[Gal(b1-4)GlcNAc(b1-2)Man(a1-3)]Man(b1-4)GlcNAc(b1-4)GlcNAc
Outline: as §1

[7] = target: Neu5Ac(a2-6)Gal(b1-4)GlcNAc(b1-2)Man(a1-6)[GlcNAc(b1-2)Man(a1-3)]Man(b1-4)GlcNAc(b1-4)GlcNAc
Outline: as §1

[8] = target: Neu5Ac(a2-6)Gal(b1-4)GlcNAc(b1-2)Man(a1-6)[Man(a1-3)]Man(b1-4)GlcNAc(b1-4)GlcNAc
Outline: as §1

[9] = target: Neu5Ac(a2-6)Gal(b1-4)GlcNAc(b1-2)[Neu5Ac(a2-6)Gal(b1-4)GlcNAc(b1-4)]Man(a1-3)[GlcNAc(b1-4)][Neu5Ac(a2-6)Gal(b1-4)GlcNAc(b1-2)[Neu5Ac(a2-6)Gal(b1-4)GlcNAc(b1-6)]Man(a1-6)]Man(b1-4)GlcNAc(b1-4)GlcNAc
Outline: as §1

[10] = target: Neu5Ac(a2-6)Gal(b1-4)GlcNAc(b1-2)[Neu5Ac(a2-6)Gal(b1-4)GlcNAc(b1-4)]Man(a1-3)[GlcNAc(b1-4)][Neu5Ac(a2-6)Gal(b1-4)GlcNAc(b1-4)Man(a1-6)]Man(b1-4)GlcNAc(b1-4)GlcNAc
Outline: as §1

[11] = target: Neu5Ac(a2-6)Gal(b1-4)GlcNAc(b1-2)[Neu5Ac(a2-6)Gal(b1-4)GlcNAc(b1-6)]Man(a1-6)[Neu5Ac(a2-6)Gal(b1-4)GlcNAc(b1-2)Man(a1-3)][GlcNAc(b1-4)]Man(b1-4)GlcNAc(b1-4)GlcNAc
Outline: as §1

[12] = target: Neu5Ac(a2-6)Gal(b1-4)GlcNAc(b1-3)Gal(b1-3)GlcNAc
Outline: as §1

[13] = target: Neu5Ac(a2-6)Gal(b1-4)GlcNAc(b1-3)Gal(b1-4)GlcNAc
Outline: as §1

[14] = target: Neu5Ac(a2-6)Gal(b1-4)GlcNAc(b1-3)Gal(b1-4)GlcNAc(b1-2)Man(a1-3)[Neu5Ac(a2-6)Gal(b1-4)GlcNAc(b1-3)Gal(b1-4)GlcNAc(b1-2)Man(a1-6)]GalNAc
Outline: as §1

[15] = target: Neu5Ac(a2-6)Gal(b1-4)GlcNAc(b1-3)Gal(b1-4)GlcNAc(b1-3)Gal(b1-4)GlcNAc
Outline: as §1

[16] = target: Neu5Ac(a2-6)Gal(b1-4)GlcNAc(b1-3)Gal(b1-4)GlcNAc(b1-3)Gal(b1-4)GlcNAc(b1-2)Man(a1-3)[Neu5Ac(a2-6)Gal(b1-4)GlcNAc(b1-3)Gal(b1-4)GlcNAc(b1-3)Gal(b1-4)GlcNAc(b1-2)Man(a1-6)]GalNAc
Outline: as §1

[17] = target: Neu5Ac(a2-6)Gal(b1-4)GlcNAc(b1-3)Gal(b1-4)GlcNAc(b1-3)GalNAc
Outline: as §1

[18] = target: Neu5Ac(a2-6)Gal(b1-4)GlcNAc(b1-3)Gal(b1-4)GlcNAc(b1-3)[Neu5Ac(a2-6)Gal(b1-4)GlcNAc(b1-3)Gal(b1-4)GlcNAc(b1-6)]GalNAc
Outline: as §1

[19] = target: Neu5Ac(a2-6)Gal(b1-4)GlcNAc(b1-3)Gal(b1-4)GlcNAc(b1-6)[Gal(b1-3)]GalNAc
Outline: as §1

[20] = target: Neu5Ac(a2-6)Gal(b1-4)GlcNAc(b1-3)Gal(b1-4)[Fuc(a1-3)]GlcNAc(b1-3)Gal(b1-4)[Fuc(a1-3)]GlcNAc
Outline: as §1

[21] = target: Neu5Ac(a2-6)Gal(b1-4)GlcNAc(b1-3)GalNAc
Outline: as §1

[22] = target: Neu5Ac(a2-6)Gal(b1-4)GlcNAc(b1-3)[Neu5Ac(a2-6)Gal(b1-4)GlcNAc(b1-6)]GalNAc
Outline: as §1

[23] = target: Neu5Ac(a2-6)Gal(b1-4)GlcNAc(b1-6)GalNAc
Outline: as §1

[24] = target: Neu5Ac(a2-6)Gal(b1-4)GlcNAc(b1-6)[Gal(b1-3)GlcNAc(b1-3)]Gal(b1-4)Glc
Outline: as §1

[25] = target: Neu5Ac(a2-6)Gal(b1-4)GlcNAc(b1-6)[Gal(b1-3)]GalNAc
Outline: as §1

[26] = target: Neu5Ac(a2-6)Gal(b1-4)GlcNAc6S
Outline: as §1

Neu5Ac(a2-6)GalNAc = target: Neu5Ac(a2-6)GalNAc
Outline: as §1

[27] = target: Neu5Ac(a2-6)GalNAc(b1-4)GlcNAc
Outline: as §1

[28] = target: Neu5Ac(a2-6)GalNAc(b1-4)GlcNAc6S
Outline: as §1

[29] = target: Neu5Ac(a2-6)GlcNAc(b1-4)GlcNAc
Outline: as §1

[30] = target: Neu5Ac(a2-6)GlcNAc(b1-4)GlcNAc(b1-4)GlcNAc
Outline: as §1

B1: GSL-I-B4 (Griffonia simplicifolia) (protein)
chain: NFWSDVEDSIIFQGDANTTAGTLQLCKTNQYGTPLQWSAGRALYSDPVQLWDNKTESVASFYTEFTFFLKITGNGPADGLAFFLAPPDSDVKDAGEYLGLFNKSTATQPSKNQVVAVEFDTWTNPNFPEPSYRHIGINVNSIVSVATKRWEDSDIFSGKIATARISYDGSAEILTVVLSYPDGSDYILSHSVDMRQNLPESVRVGISASTGNNQFLTVYILSWRFSSNLQSTSVKAAMEPEITRTVV
glycan array binding signal (z-score) [1]: -0.112
glycan array binding signal (z-score) [2]: -0.201
glycan array binding signal (z-score) [3]: -0.174
glycan array binding signal (z-score) [4]: -0.167
glycan array binding signal (z-score) [5]: -0.238
glycan array binding signal (z-score) [6]: -0.199
glycan array binding signal (z-score) [7]: -0.139
glycan array binding signal (z-score) [8]: -0.197
glycan array binding signal (z-score) [9]: -0.151
glycan array binding signal (z-score) [10]: -0.191
glycan array binding signal (z-score) [11]: -0.133
glycan array binding signal (z-score) [12]: -0.185
glycan array binding signal (z-score) [13]: -0.173
glycan array binding signal (z-score) [14]: -0.121
glycan array binding signal (z-score) [15]: -0.182
glycan array binding signal (z-score) [16]: -0.051
glycan array binding signal (z-score) [17]: -0.197
glycan array binding signal (z-score) [18]: 0.078
glycan array binding signal (z-score) [19]: -0.169
glycan array binding signal (z-score) [20]: -0.135
glycan array binding signal (z-score) [21]: -0.209
glycan array binding signal (z-score) [22]: -0.161
glycan array binding signal (z-score) [23]: -0.124
glycan array binding signal (z-score) [24]: -0.205
glycan array binding signal (z-score) [25]: -0.147
glycan array binding signal (z-score) [26]: -0.143
glycan array binding signal (z-score) (Neu5Ac(a2-6)GalNAc): -0.224
glycan array binding signal (z-score) [27]: -0.198
glycan array binding signal (z-score) [28]: -0.181
glycan array binding signal (z-score) [29]: -0.014
glycan array binding signal (z-score) [30]: -0.169
